This passage reports activity change, negative = inhibition results from PubChem BioAssay AID1745853 (National Center for Advancing Translational Sciences (NCATS), 2022).

This is one part of the list. Shown are side measurements of this screen, not its main read-out; they come without a call.

What all share (test): Primary Screen for Target Class Profiling of Small Molecule Inhibitors of Methyltransferases
Experiment [1] concerns the target Glycine N-methyltransferase (Homo sapiens) (UniProt Q14749). The settings on record: purified enzyme, MTase-Glo SAH luminescence; measured here: GNMT inhibition; at 40 µM; stronger effect = lower value. The method in brief: (§1)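 Each enzyme was assayed with SAM and its substrate. SAH formation detected by MTase-Glo luminescence; single-point 40 uM screen[…].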

In experiment [2] the target is Histamine N-methyltransferase (Homo sapiens) (UniProt P50135). The conditions noted are these: purified enzyme, MTase-Glo SAH luminescence; measured here: HNMT inhibition; at 40 µM; stronger effect = lower value. The method in brief:
as §1

Experiment [3] has as its target Nicotinamide N-methyltransferase (Homo sapiens) (UniProt P40261). The conditions noted are these: purified enzyme, MTase-Glo SAH luminescence; measured here: NNMT inhibition; at 40 µM; stronger effect = lower value. An outline of the steps: as §1
Experiment [4] addresses Phenylethanolamine N-methyltransferase (Homo sapiens) (UniProt P11086). The settings on record: purified enzyme, MTase-Glo SAH luminescence; measured here: PNMT inhibition; at 40 µM; stronger effect = lower value. An outline of the steps: as §1
For experiment [5], the target named is Guanidinoacetate N-methyltransferase (Homo sapiens) (UniProt Q14353). The settings on record: purified enzyme, MTase-Glo SAH luminescence; measured here: GAMT inhibition; at 40 µM; stronger effect = lower value. The method in brief:
as §1
On the % scale 0 is the no-effect control and ±100 the full control effect.

Take `CCCCCCCCCCCCCCCc1cccc(O)c1C(=O)O`: the activity change, negative = inhibition in experiment [1] is -22.3%; in experiment [2] it was -1.13%; in experiment [3], -14.8%; in experiment [4], 27.4%.

In the case of `Cc1nc(C)c(C(=O)Nc2nn(Cc3ccccc3)c3cccc(OC(C)C)c23)o1`, the activity change, negative = inhibition in experiment [1] was -21.2%; in experiment [5] it was -17.3%; in experiment [2], -17.9%; in experiment [3], -31.6%; in experiment [4] it was -15.7%.

Consider `O=C(NNc1nc2cc(F)ccc2n2cccc12)c1cnccn1`, for which the activity change, negative = inhibition in experiment [1] was 2.69%; in experiment [5], 6.31%; in experiment [2], 9.38%; in experiment [3], -15.3%; in experiment [4], 4.07%.

Regarding `CC(C)Oc1ccc(CNC(=O)c2cc3n(n2)CC(C)(C(=O)NC2CCCC2)N(C)C3=O)cc1` (configuration not stated), the activity change, negative = inhibition was -0.901% in experiment [1]; 3.45% in experiment [5]; 3.19% in experiment [2]; -2.01% in experiment [3]; -6.34% in experiment [4].

As to `CN1CCN(C(c2ccc(Cl)cc2Cl)c2sc3nc(-c4ccco4)nn3c2O)CC1` (configuration not stated), the values for the activity change, negative = inhibition in experiment [5], in experiment [3] and in experiment [4] were 5.83%, -11.5% and 1.05%, respectively.

For the compound `CC1(C)CN(C(=O)c2ccc(Oc3ccccc3)o2)CC1(C)O` (configuration not stated), the activity change, negative = inhibition in experiment [1] is -6.04%; in experiment [5], -3.05%; in experiment [2] it was -1.11%; in experiment [3], -8.42%; in experiment [4], -12.2%.

Turning to `CC(NC(=O)CC(=O)O)c1nc2ccccc2c(=O)[nH]1` (configuration not stated), the activity change, negative = inhibition in experiment [1] is 2.48%; in experiment [5] it was 7.18%; in experiment [2], 10.1%; in experiment [3] it was -2.93%; in experiment [4], 6.57%.

With `O=C(Nc1cccc(-c2nnc3n2CCCC3)c1)c1ccccn1`, the activity change, negative = inhibition was -7.2% in experiment [1]; -6% in experiment [5]; -7.83% in experiment [2]; -9.34% in experiment [3]; -26.5% in experiment [4].

Consider `CNc1nc(Nc2ccc(C(=O)N3CCOCC3)cc2OC)ncc1Cl`, for which the activity change, negative = inhibition in experiment [1] is -4.91%; in experiment [5] it was -5.16%; in experiment [2], 4.38%; in experiment [3], -16.6%; in experiment [4], -10.1%.

For the compound `CCOCCn1nc(CC)c2nc(N3CCC(C(=O)O)CC3)nc(Nc3cc(C)ccn3)c21`, the activity change, negative = inhibition is -28.2% in experiment [1]; -16% in experiment [5]; -12.7% in experiment [2]; -33.6% in experiment [3]; -16% in experiment [4].

`CC(=O)c1ccc(Nc2nc3c(S(=O)(=O)c4ccc(Br)cc4)nnn3c3ccccc23)cc1`: the activity change, negative = inhibition was -7.06% in experiment [1]; 0% in experiment [5]; -0.004% in experiment [2]; -5.47% in experiment [3]; -3.36% in experiment [4].

Turning to `CC1(C(=O)NC2CCCCC2)Cn2c(cc3sccc32)C(=O)N1CCc1ccc(Cl)cc1` (configuration not stated), the activity change, negative = inhibition is -1.28% in experiment [1]; 0.986% in experiment [5]; 5.15% in experiment [2]; 1.13% in experiment [3]; -1.7% in experiment [4].

For the compound `CCCn1c(=O)c2ccccc2n2c(SCC(=O)Nc3ccc4c(c3)OCCO4)nnc12`, the activity change, negative = inhibition in experiment [1] was -12.9%; in experiment [5], 2.99%; in experiment [2] it was 1.93%; in experiment [3], -7.89%; in experiment [4] it was -2.67%.

Take `Cc1ccsc1CN1CCCOCCNC(=O)[C@@H]2CCCC[C@@H]21`: the activity change, negative = inhibition was -0.122% in experiment [1]; 1.22% in experiment [5]; 2.24% in experiment [2]; -4.37% in experiment [3]; 4.73% in experiment [4].

On to `COc1ccc(CNc2nc3c(-c4ccc(C)cc4)nnn3c3ccccc23)cc1`, for which the activity change, negative = inhibition in experiment [1] was -2.6%; in experiment [5], 2.68%; in experiment [2], 1.82%; in experiment [3], 3.23%; in experiment [4], -3.31%.

On to `Cc1cc(CO)c(O)c(C(=O)CC2CC(=O)NC(=O)C2)c1`, for which the activity change, negative = inhibition in experiment [1] was 3.96%; in experiment [5], 4.16%; in experiment [2] it was 6.84%; in experiment [3], -9.58%; in experiment [4], 5.44%.

Consider `CC1CCN(S(=O)(=O)c2ccc3c(ccn3CCC(=O)NCCCN3CCOCC3)c2)CC1`, for which the activity change, negative = inhibition in experiment [1] was 4.21%; in experiment [5], 4.59%; in experiment [2], -1.22%; in experiment [3] it was 7.06%; in experiment [4], 0.789%.

Take `CN(C)CCNC(=O)c1cc2n(n1)CC(C)(C(=O)NC1CCCCC1)N(C)C2=O` (configuration not stated): the activity change, negative = inhibition worked out at 6.11% in experiment [1]; 0% in experiment [5]; 8.89% in experiment [2]; 5.73% in experiment [3]; 4.82% in experiment [4].

With `CN(Cc1ccc(Oc2ncccn2)cc1)CC1CCN(CCc2ccc(F)cc2)CC1`, the activity change, negative = inhibition was -3.27% in experiment [1]; -7.18% in experiment [5]; -7.92% in experiment [2]; -7.25% in experiment [3]; -10.9% in experiment [4].

`CCOc1ccccc1CN1CCC2(Cc3ccccc3CNC2=O)C1` (configuration not stated): the activity change, negative = inhibition in experiment [1] is -8.12%; in experiment [5] it was -6.55%; in experiment [2] it was -17.2%; in experiment [3] it was -13.7%; in experiment [4], 0.478%.

On to `Cc1nc(C2CC(O)C2)cc(N2CCC(c3nncn3C)CC2)n1` (configuration not stated), for which the activity change, negative = inhibition in experiment [1] was 0.018%; in experiment [5], -2.66%; in experiment [2], -2.46%; in experiment [3] it was -0.524%; in experiment [4], 1.4%.

`Cc1[nH]c2ccccc2c1C(=O)Cn1nc2n(Cc3ccc(F)cc3)c(=O)c3ccccc3n2c1=O`: the activity change, negative = inhibition in experiment [1] was 8.93%; in experiment [5], 1.35%; in experiment [2], 2.42%; in experiment [3], -0.249%; in experiment [4] it was 8.37%.

With `CCN1C(=O)C=CC1=O`, the activity change, negative = inhibition in experiment [1] is 3.97%; in experiment [5] it was 9.22%; in experiment [2], 8.12%; in experiment [3], -6.21%; in experiment [4], -1.35%.

`CCCCN1C(=O)c2cc(C(=O)Nc3cc(OC)ccc3OC)nn2CC1(C)C(=O)NC1CCCC1` (configuration not stated): the activity change, negative = inhibition was 1.7% in experiment [1]; 0% in experiment [5]; 2.88% in experiment [2]; -1.24% in experiment [3]; 1.39% in experiment [4].

Turning to `CCCN1C(=O)c2c(C(=O)NCCN3CCOCC3)ncn2CC1(C)C(=O)NCc1ccc(C)cc1` (configuration not stated), the activity change, negative = inhibition in experiment [1] came out at 3.67%; in experiment [5] it was 0%; in experiment [2], 5.33%; in experiment [3], 4.79%; in experiment [4] it was 6.26%.

Turning to `CNC(=O)[C@@H](CC(C)C)N1CCC[C@H]1C(=O)N1CCN(C)CC1`, the activity change, negative = inhibition is 7.78% in experiment [1]; -7.79% in experiment [5]; -2.41% in experiment [2]; -9.03% in experiment [3]; -6.46% in experiment [4].

For the compound `CN(C1CCc2nn(CC3CC3)c(=O)n2CC1)S(=O)(=O)c1cccnc1` (configuration not stated), the activity change, negative = inhibition in experiment [1] is 1.45%; in experiment [5], 2.94%; in experiment [2], 3.01%; in experiment [3] it was -0.457%; in experiment [4] it was 18.4%.

`CC1CCC(NC(=O)C2(c3ccccc3)Cn3c(cc4sccc43)C(=O)N2Cc2ccc(F)cc2)CC1` (configuration not stated): the activity change, negative = inhibition was 7.21% in experiment [1]; 3.38% in experiment [5]; 6.98% in experiment [2]; 4.05% in experiment [3]; -2.4% in experiment [4].

With `O=C(O)Cc1c(-c2ccccc2)c2cc(Br)ccc2[nH]c1=O`, the activity change, negative = inhibition in experiment [1] is -13.3%; in experiment [5] it was 3.32%; in experiment [2] it was 2.07%; in experiment [3] it was -2.36%; in experiment [4], -0.816%.

In the case of `COc1ccc(CN2C(=O)c3c(-n4cccc4)c4cc(F)ccc4n3CC2(C)C(=O)NC2CCCCCC2)cc1` (configuration not stated), the activity change, negative = inhibition in experiment [1] is -17.4%; in experiment [5], 3.68%; in experiment [2] it was -5.76%; in experiment [3] it was -24.7%; in experiment [4], -4.12%.
